Test results taken from PMC5510750 (Immunity, 2017).

Biological target: T1, IFN-αR2, recombinant receptor (UniProt P48551 34-232)
T1 sequence: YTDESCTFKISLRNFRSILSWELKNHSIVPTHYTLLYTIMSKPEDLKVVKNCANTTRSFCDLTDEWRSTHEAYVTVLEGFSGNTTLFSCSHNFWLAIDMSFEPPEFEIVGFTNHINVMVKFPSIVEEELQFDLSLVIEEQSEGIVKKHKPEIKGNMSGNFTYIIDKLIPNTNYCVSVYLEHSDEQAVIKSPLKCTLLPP
Assay: SPR

Kd: 200 pM
B1: IFN-ω (Lys152Arg) (ligand)
chain: not shown
